# Paper PMC12040169 (PLOS Biology, 2025)
# This is one part of the list.
# Tested on: T1, C. trachomatis L2/434/Bu expressing GFP (CTL2-GFP)
# T1 construct: L2/434/Bu GFP intracellular growth in HeLa cells
# Set-up: species or system HeLa; C. trachomatis total inclusion area by high-content imaging, normalised to DMSO
# Details: total inclusion area; 28.5 h, 10 µM; inhibitor
# In short: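 High-content imaging followed the bulk GFP/resorufin measurement: fixed, Hoechst-stained cells were scored for GFP inclusions and host nuclei per well. Total inclusion area and count served as growth proxies, nuclei number as the viability proxy. MIC calculation matched the bulk assay.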
row,SMILES,% of control remaining
1,Cc1ccc(-c2noc([C@@H]3Cc4[nH]cnc4CN3C(=O)c3cccs3)n2)cc1 [CBK288957],112.378
2,CCC(NC(=O)C(C)n1cc(Cl)cn1)c1ccc(OC)cc1 (stereo not shown) [CBK282029],126.966
3,O=C(O)c1cccc(CSCC(=O)N2CCC(Cc3ccccc3)CC2)c1 [CBK296675],119.831
4,CCc1nc2ccc(C(=O)Nc3ccc(C(N)=O)cc3)cn2c1N(C)CCC(C)C [CBK145476],101.194
5,CC(=O)N1CC(C(=O)Nc2ccccc2Cc2ccccc2)Oc2ccccc21 (stereo not shown) [CBK297525],90.2514
6,COc1ccc(C(C)C)cc1-c1ccc(C(=O)N2CCN(C)CC2)c(N(C)C)n1 [CBK106130],103.722
7,O=[N+]([O-])c1ccc(O)c(/C=N/Nc2nc(Nc3ccc(Cl)cc3)nc(N3CCOCC3)n2)c1 [CBK260918],99.8023
8,C=CCO[C@@H]1C[C@H]2C(=O)N3CC[C@H](NC(=O)[C@@H](O)c4ccccc4)C[C@H]3C(=O)N2C1 [CBK289556],69.088
9,CS(=O)(=O)N(Cc1cc2ccccc2nc1O)CC1CCCO1 (stereo not shown) [CBK269517],94.1128
10,CCCCN(C)c1c(CC)nc2ccc(C(=O)NC3=NC(=O)CS3)cn12 [CBK145464],59.9955
11,Cn1c(=O)c2c(nc(CN3CCN(c4ccccc4)CC3)n2Cc2ccccc2)n(C)c1=O [CBK269557],83.7113
12,Cc1cccc(CC(=O)N2CCC(Cc3ccccc3-c3ccccc3)(C(N)=O)CC2)c1 [CBK285731],101.675
13,CCC(CC)C(=O)Nc1nc(OC)cnc1-c1cc(Cl)cc(Cl)c1 [CBK145338],85.1896
14,Cc1cc(C)cc(C(=O)N2CCCC(C(=O)N3CCN(c4nccs4)CC3)C2)c1 (stereo not shown) [CBK298307],84.4024
15,Cc1cc(Cc2ccc(Cl)cc2)cc(C2CCN(C(=O)Cc3csc(C)n3)CC2)n1 [CBK286526],98.1735
16,O=C(O)c1ccc(CNC(=O)c2ccc(Cl)c(S(=O)(=O)N3CCCC3)c2)cc1 [CBK297096],79.3129
17,O=C(c1cc(-c2ccncc2)nc2ccc(Cl)cc12)N1CCN(C/C=C/c2ccccc2)CC1 [CBK267754],109.079
18,O=C(O)CCSc1nnc(-c2cccc(Br)c2)o1 [CBK286540],114.021
19,O=C(Nc1ccc2nc(SCc3ccc([N+](=O)[O-])cc3)sc2c1)c1ccccc1 [CBK263427],99.1233
20,O=C(Cn1cc(C(=O)NC2(c3ccccc3)CCCC2)ccc1=O)NC1CCCCC1 [CBK285986],109.992
21,CC(=O)Nc1ccc(Nc2nc(Br)cn3ccnc23)cc1 [CBK066338],123.012
22,O=C(COc1ccc(S(=O)(=O)NC2CCCC2)cc1)Nc1ccc2c(c1)OCCO2 [CBK266431],116.979
23,COC(=O)[C@@H](C)NC(=O)[C@H]1CN(C(=O)Nc2ccccc2)CCN1C(=O)c1cccs1 [CBK289629],127.802
24,COc1ccc(C(C)C)cc1-c1cc(NCCc2cccnc2)n2nccc2n1 [CBK037097],117.045
25,COc1cc(F)ccc1-c1ccc2ccc(NC(=O)C(C)C)nc2n1 [CBK073666],102.471
26,O=C(CC1S/C(=N/N=C/c2ccc(-c3ccc(Cl)c([N+](=O)[O-])c3)o2)NC1=O)Nc1ccccc1 (stereo not shown) [CBK264473],123.596
27,O=C(O)c1cccc(-n2nnnc2SCc2ccccn2)c1 [CBK266744],94.9659

row,SMILES,% of control remaining
1,CCc1nnc(SCc2ccc(CSc3nnc(CC)n3N)cc2)n1N [CBK265689],88.1759
2,CN(C)CCN(C)c1cc(-c2ccc(F)c(Cl)c2)nc2ccnn12 [CBK037230],125.31
3,CCCCNC(=O)OC1CCN(CCc2ccccc2)CC1 [CBK022839C],49.8343
4,Cc1cc2c(cc3c(=O)n(CC(=O)OC(C)C)nc(C)n32)s1 [CBK284071],61.8952
5,CC(C)(C)C(Cn1cccn1)NC(=O)CCC(=O)O (stereo not shown) [CBK286897],72.8696
6,CC(C)(C)CC(NC(=O)C1CCCN(S(C)(=O)=O)C1)c1ccccc1 (stereo not shown) [CBK304563],41.8193
7,O=C(Cc1ccccc1)N/N=C/c1cccc2cccnc12 [CBK262778],110.494
8,Cc1cnc(CNC(=O)c2cnoc2-c2ccccc2)cn1 [CBK154926],94.3042
9,Cc1cc2nc(/C(C#N)=C/c3cc(C)n(-c4ccc(C(=O)O)cc4)c3C)[nH]c2cc1C [CBK269105],89.4286
10,CCOC(=O)C1CCCN(Cc2nc3cc(Cl)ccc3c(=O)[nH]2)C1 (stereo not shown) [CBK306198],56.0338
11,O=C(NCCc1ccc(O)cc1)C1(c2ccccc2)CCCC1 [CBK149535],81.2168
12,CCOC(=O)c1cnn(-c2cc(Oc3ccccc3)ncn2)c1N [CBK098284],80.9328
13,O=C(O)C1CCC(CNC(=O)C2Cc3ccccc3CN2)CC1 (stereo not shown) [CBK286745],79.9475
14,CSCc1nc2ccccc2n1CC(=O)N(CCC#N)Cc1ccco1 [CBK305440],93.1138
15,CC(C)[C@@H](Cn1nc(C2CC2)ccc1=O)NC(=O)c1ccco1 [CBK282321],118.221
16,COC(=O)NCCc1c[nH]c2ccc(OC)cc12 [CBK084597],97.9439
17,Cc1ccc(N2C(=O)/C(=C/c3ccc(O)c(O)c3)SC2=S)cc1C [CBK262756],36.1826
18,O=C(c1cc[nH]n1)N1CCC(c2cc3ccccc3cn2)CC1 [CBK284892],106.476
19,CC1CCN(S(=O)(=O)c2ccc(Oc3ccc([N+](=O)[O-])cc3)cc2)CC1 [CBK261774],108.029
20,COc1cncc(-c2cc(NC3CCCCC3)ncn2)c1 [CBK090903],133.335
21,CC(Oc1ccc2c(c1)OCO2)C(=O)NNC(=O)Nc1cccc(Cl)c1Cl (stereo not shown) [CBK266852],110.506
22,COc1ccc(OC)c(CN2CCCN(C)CC2)c1 [CBK261554],108.427
23,CN(C(=O)c1c[nH]nc1C1CCCN(Cc2ccnc3ccccc23)C1)C1CCCCC1 (stereo not shown) [CBK286491],105.668
24,CC(NC(=O)C(C)(C)C)c1nc(-c2ccncc2)n[nH]1 (stereo not shown) [CBK104074],92.0403
25,COc1ccc(C(C)N(CCN2CCOCC2)C(=O)NCc2cccc3ccccc23)cc1OC (stereo not shown) [CBK158984],59.3698
26,O=c1n(-c2ccc(Cl)c(Cl)c2)ccn1S(=O)(=O)CCc1cccc2ccccc12 [CBK106668],111.066
27,NC1=C2NC(c3cccc(C(=O)O)c3)=NN2N(c2ccccc2)N1 [CBK093663],102.022

row,SMILES,% of control remaining
1,CC(OC(=O)N1CCN(c2ccccc2)CC1)c1ccccc1 (stereo not shown) [CBK200243],101.067
2,COc1ccc(C2CC(c3ccccc3)=NN2c2ccc(S(N)(=O)=O)cc2)cc1OC (stereo not shown) [CBK268193],105.724
3,O=C(C1=C(O)C(=O)N(CCCn2ccnc2)C1c1ccncc1)c1ccccc1 (stereo not shown) [CBK264527],99.8799
4,O=C(Nc1cccc2nsnc12)c1ccc(Cl)cc1 [CBK263793],101.538
5,CN(CC(=O)Nc1sc2c(c1C#N)CCCCC2)Cc1cnn(C)c1 [CBK304621],5.105
6,COC(=O)c1ccc(NC(=O)CC2Sc3ccc(C(F)(F)F)cc3NC2=O)cc1 (stereo not shown) [CBK264645],114.597
7,Cc1c(C(=O)O)sc2c1c(=O)n(Cc1ccccc1)c(=O)n2CCN(C)C [CBK286590],89.298
8,CC(=O)NC1=NC(=O)CN1C [CBK020181],42.4262
9,O=C(c1ccc(-c2nccnc2N2CCN(CCO)CC2)cc1)N1CCOCC1 [CBK036812],147.91
10,CCN1CCCCC1CNC(=O)c1cc(C2CC2)n[nH]1 (stereo not shown) [CBK282205],103.246
11,O=S(=O)(Cc1ccccc1)Nc1cccc2[nH]ccc12 [CBK159490],119.319
12,O=C(COc1ccccc1)NC1C(=O)N2C(C(=O)O)=C(Cl)CSC12 (stereo not shown) [CBK266903],107.126
13,O=C(NCC1COc2ccccc2O1)NC(=O)C1CCNCC1 (stereo not shown) [CBK051096],101.913
14,COc1ccc(NCc2cc(I)c(OCc3ccccc3)c(OC)c2)cc1 [CBK074452],61.3749
15,C[C@H]1CNCCN1c1nccnc1Cl [CBK047524F],43.3065
16,Fc1ccc(OCc2nn3cnnc3s2)cc1 [CBK287288],88.712
17,CCOc1ccc(S(=O)(=O)NCCCN2CCOCC2)c2ccccc12 [CBK018421],74.4928
18,CN(C)S(=O)(=O)c1ccc(CCC(=O)O)cc1 [CBK287216],101.649
19,Cc1sc(-c2ccc(Cl)nc2)nc1OC(=O)c1cccs1 [CBK067733],83.9147
20,C=CCn1c(Cc2csc(NC(=O)c3ccc(C(C)=O)s3)n2)n[nH]c1=S [CBK295299],117.633
21,CCN(C(=O)CC1SC(NCC2CCCCC2)=NC1=O)c1ccccc1 (stereo not shown) [CBK067373],111.38
22,COc1ccccc1C(=O)N1CCC(Cc2ccc(-c3cccc(C)c3)cc2)(C(N)=O)CC1 [CBK285792],89.2589
23,C[N+](C)(C)C1=C([O-])c2ccccc2C1=O [CBK009824],71.8752
24,N#Cc1ccccc1Cn1cc(C(=O)COc2ccccc2)c2ccccc21 [CBK268532],116.141
25,Clc1nccnc1N1CCCC1 [CBK083594],95.4047
